According to PubChem BioAssay AID493168 (National Center for Advancing Translational Sciences (NCATS), 2011):
This list was built around the results that the source calls inconclusive (neither active nor inactive); the mix of calls is not that of the screen. No potency is given beside an inconclusive call; the fits are too rough. Calls of active or inactive are those of the source. Calls follow the shape of the dose curve; as a rule, active = well fitted inhibition curve with a large enough effect; inconclusive = small, poorly fitted or top-dose-only effect, or effect the other way; inactive = flat fitted curve, though single readings scatter.

Biological target: Ubiquitin carboxyl-terminal hydrolase 2 (Homo sapiens) (UniProt O75604)
Sequence of UniProt O75604 (O75604 whole entry, looked up): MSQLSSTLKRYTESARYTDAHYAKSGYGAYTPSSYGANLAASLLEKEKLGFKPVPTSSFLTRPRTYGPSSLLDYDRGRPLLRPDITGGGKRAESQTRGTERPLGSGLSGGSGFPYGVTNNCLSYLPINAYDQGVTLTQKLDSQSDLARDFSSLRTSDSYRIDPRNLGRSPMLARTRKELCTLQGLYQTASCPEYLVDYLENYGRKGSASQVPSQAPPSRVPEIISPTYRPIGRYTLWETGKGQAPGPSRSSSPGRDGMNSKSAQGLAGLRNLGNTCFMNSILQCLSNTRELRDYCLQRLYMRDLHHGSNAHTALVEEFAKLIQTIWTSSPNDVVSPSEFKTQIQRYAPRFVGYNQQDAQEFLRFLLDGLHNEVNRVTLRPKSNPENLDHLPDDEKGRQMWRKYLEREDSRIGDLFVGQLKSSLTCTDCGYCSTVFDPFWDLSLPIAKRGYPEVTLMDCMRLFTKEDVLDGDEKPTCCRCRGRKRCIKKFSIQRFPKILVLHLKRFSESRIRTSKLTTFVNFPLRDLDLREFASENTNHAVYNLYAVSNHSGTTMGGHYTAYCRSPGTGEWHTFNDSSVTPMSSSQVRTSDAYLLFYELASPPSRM
Experiment: Confirmation Assay for Inhibitors of Ubiquitin-specific Protease USP2a Using CHOP2 as the Reporter; also: nearly all actives have a fitted effect of over 55% in size
Details: USP2 core, Ub-CHOP2 coupled reporter fluorescence; series mostly up to 38.3 µM
In short: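 Ub-CHOP2 cleavage coupled to reporter activation was read by fluorescence after 60 min at RT, with 25 nM final Ub-CHOP2 and substrate. Enzyme (10 nM final USP2 core) first sat 30 min with compound; data were normalized to NEM and fitted to concentration-response curves.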
Potency is read from the fitted curve at half-maximal effect; tags tell the direction and shape of the fitted curve.

SMILES	Potency
CCOC(=O)C1CCN(C(=O)COC(=O)c2c(C)c(CC)nc3ccccc23)CC1	inactive
O=C(COc1ccccc1)Nc1nnc(-c2ccc(Cl)s2)o1	inactive
CC(=O)c1ccc2c(c1)C1C=CCC1C(C(=O)O)N2 (stereo not drawn)	active: 11.7 µM
CCCCCCCCCCOC(=O)Cn1c(COc2ccc(C)cc2)[n+](C)c2ccccc21	inconclusive [inhibitor, single point]
O=C(O)C(Cc1ccccc1)N1C(=O)/C(=C/C=C/c2ccco2)SC1=S (stereo not drawn)	active: 7.36 µM
Cc1ccc(OCC(=O)Nc2ccc(N3CCCC3)cc2)cc1C	inconclusive [inhibitor, single point]
NS(=O)(=O)c1ccc(N=Nc2c(O)c(C(=O)O)cc3ccccc23)cc1	active: 13.1 µM
CCC(C)Sc1nc2c(c(=O)[nH]1)C(c1cccs1)C1=C(CCCC1=O)N2 (stereo not drawn)	inconclusive [inhibitor, partial curve, poor fit]
CN(C)c1ccc(C(CN)c2c[nH]c3ccccc23)cc1 (stereo not drawn)	inconclusive [inhibitor, partial curve, poor fit]
CC(C)C(C(=O)O)N1C(=O)/C(=C/C=C/c2ccco2)SC1=S (stereo not drawn)	active: 6.56 µM
COc1ccccc1C(=O)n1nc(-c2cccnc2)nc1NCc1ccccc1	active: 5.85 µM
O=C(NCCc1ccccc1)c1ccc2nc(-c3ccco3)c(-c3ccco3)nc2c1	inconclusive [inhibitor, single point]
O=C1CCCC2=C1C(c1ccco1)Nc1ccc3ccccc3c12 (stereo not drawn)	inconclusive [inhibitor, single point]
